Test results: PubChem BioAssay AID1454 (National Center for Advancing Translational Sciences (NCATS), 2008)
Hit rate of the full screen: of about 130,000 compounds, about 550 (0.42%) were called active. The inconclusive results got no clear call from the source; some entries with a clear call stand among them for comparison. The call rests on the fitted dose curve; in most records, active means well fitted inhibition curve with a large enough effect; inconclusive means small, poorly fitted or top-dose-only effect, or effect the other way; inactive means flat fitted curve, though single readings scatter. No potency is given beside an inconclusive call; the fits are too rough.

Test: qHTS Assay for Inhibitors of the ERK Signaling Pathway using a Homogeneous Screening Assay; Stimulation with EGF; further: nearly all actives have a fitted effect of over 55% in size
Details: HEK293-V1b, EGF-stimulated phospho-ERK AlphaScreen
Excerpt: NIH Chemical Genomics Center [NCGC]
NIH Molecular Libraries Screening Centers Network [MLSCN]
Assay Submitter (PI): Dr. Wei Zheng, NCGC/NIH
The Ras/extracellular-signal-regulated kinase (ERK) mitogen activated protein (MAP) kinase signaling pathway (ERK1/2 cascade) plays a key role in transmitting signals from the cell surface to the nucleus (Nishida and Gotoh 1993; Chang and Karin, 2001). The cascade is initiated by the small G-protein Ras, which recruits Raf from the cytosol, where activation occurs. Alternatively, this pathway can be activated by elevating intracellular cAMP, or by activation of a receptor tyrosine kinase as epidermal growth factor receptor.
Activation of the ERK pathway is essential in increased cell division and cell survival. Sustained and constitutive activation of the ERK pathway, however, has been linked to uncontrolled cell proliferation, increased cell survival, and tumor progression. Thus, the ERK has been as an attractive target for cancer chemotherapy in the past few years (Sebolt-Leopold and Herrera, 2004). Given its physiological and pathological importance, assessment of ERK phosphorylation has been broadly performed in both basic research and drug discovery. Most assays for the measurement of ERK phosphorylation use the antibody-based detection methods, such as western blot and ELISA. These assays require multiple reagent additions with cell wash steps and are not suitable for high throughout screening.
The current cell-based ERK phosphorylation assay was performed using AlphaScreen platform. AlphaScreen is a two bead-based proximity-dependent chemical energy transfer luminescent assay platform. The assay reagents (ERK SureFire(TM) kit) were supplied from TGR BioSciences (Australia). In the presence of specific antibodies, phosphorylated ERK will bring "donor" and "acceptor" beads to a proximity range (<200 nm), and subsequently lead a chemical luminescent reaction upon exciting donor beads with 680 nm laser. To exclude the assay-related false positives, we used a biotinylated rabbit IgG to perform counter-screen. The biotinylated antibody mimics the phosphorylated ERK1/2 for bringing streptavidin coated beads and protein-A coated beads to a proximity range for the AlphaScreen detection.
NCGC Assay Protocol Summary:
HEK293 cells stably expressing type-1 vasopressin receptor (V1b) were maintained in DMEM medium (Invitrogen, Carlsbad, CA) at 37C under a humidified atmosphere containing 5% CO2 and 95% air. The medium contained 10% FBS, 2 mM L-glutamine, non-essential amino acid, pyruvate and 50 U/ml penicillin and 50 ug/ml streptomycin (Invitrogen). The aliquots of frozen cells were stored at -135C and used for the compound screening. All compounds were screened as titrations from 0.6 nM to 46 uM final concentration. Epidermal growth factor (EGF) was used to stimulate the ERK phosphorylation pathway. The ERK phosphorylation in cells was determined using an AlphaScreen assay kit provided by […]. Data were normalized to the controls for basal activity (DMSO only) and 100% activation (25 nM EGF). AC50 values were determined from concentration-response data modeled with the standard Hill equation.
(1) Seed 4 ul/well of resuspended frozen HEK293 cells containing 2000 cells in white 1536-well plates for overnight with 1% FBS at 37C under a humidified atmosphere containing 5% CO2 and 95% air.
(2) Add 23 nL compounds in DMSO solution. The final titration was 0.6 nM to 46 uM.
(3) Incubate at 37C for 30 min.
(4) Dispense 0.5uL EGF (25 nM in final)
(5) Incubate at 37C for 5 min.
(6) Dispense 0.5uL of 1:2 diluted 5x lysis buffer.
(7) Incubate at 37C for 10 min.
(8) Dispense 1.5uL of mixture of activation buffer and reaction buffer with AlphaScreen beads (streptavidin donor beads and protein-A acceptor beads, 10 ng/well for each).
(9) Incubate at room temperature for 5 hr.
(10) Detect the assay plate in an EnVision plate reader (PerkinElmer) using the AlphaScreen detection mode.
[…]
Potency means the concentration at half of the fitted maximal effect; tags describe the fitted curve by direction and shape.

| SMILES | Potency |
| --- | --- |
| NC(N)=NCCC[C@H](NC(=O)CC1(CC(=O)N2CCN(C3c4ccccc4NC(=O)c4ccccc43)CC2)CCCC1)C(=O)NCCn1c(=O)n(-c2ccccc2)n(-c2ccccc2)c1=O (some centres not stated) | inactive |
| Cc1cc(NC(=O)c2sc(Nc3ccc(F)cc3)nc2N)no1 | inactive |
| CC(C)NC(=O)CSc1nnc(-c2ccc(F)cc2)c2ccccc12 | inactive |
| CCOc1ccc(NC(=S)N(CCc2c(C)[nH]c3ccc(C)cc23)Cc2ccco2)cc1 | inconclusive [inhibitor, partial curve] |
| COC(=O)c1ccc(/C=C(\C#N)C(=O)NC(C)c2ccccc2)cc1 (configuration not stated) | inconclusive [inhibitor, partial curve] |
| COc1ccccc1Nc1nc(NCc2ccco2)nc(N)c1[N+](=O)[O-] | inactive |
| N#Cc1ccc(CN2CCCC3(CCN(C(=O)c4cccc(F)c4)CC3)C2)cc1 | inactive |
| CC1=CN2C(=N)/C(=C/c3ccc([N+](=O)[O-])o3)C(=O)N=C2S1 | inconclusive [inhibitor, single point] |
| Cc1csc(NC(=O)CSc2ccc(-c3ccccc3)nn2)n1 | inconclusive [inhibitor, single point] |
| COc1cc(/C=N/NS(=O)(=O)c2ccc3ccccc3c2)ccc1OCCN1CCOCC1 | inactive |
| CCc1ccc(-c2csc3ncn(CC(=O)NCc4ccco4)c(=O)c23)cc1 | inconclusive [inhibitor, single point] |
| Cc1nc(SCC(=O)Nc2cc(Cl)ccc2[N+](=O)[O-])nc(C)c1C | inconclusive [inhibitor, single point] |
| O=C(NNc1ccccc1C(F)(F)F)c1sccc1Br | inactive |
| COc1cc(/C=N/NC(=S)NCc2ccco2)cc(OC)c1OC | inconclusive [activator, partial curve, poor fit] |
| Cc1cccc(NC(=O)/C=C/c2ccc(Cl)cc2)n1 | inconclusive [inhibitor, single point] |
| COc1c2c(nc3ccccc13)O[C@H]([C@@](C)(O)CO)C2 | inactive |
| NC(=NC(=O)c1ccc(OCC(F)(F)F)nc1)c1ccccc1 | inconclusive [activator, partial curve] |
| N=c1c2c(ncn1Cc1ccco1)Oc1ccc3ccccc3c1C2c1ccccc1 (configuration not stated) | inactive |
| CCOC(=O)C1(Cc2cccc(OC)c2)CCN(Cc2ccccc2OC)CC1 | inactive |
| COc1ccccc1/C=N/NC(=O)c1ccc(N(C)S(=O)(=O)c2ccccc2)cc1 | inconclusive [inhibitor, partial curve] |
| OCCCN=C1CCCc2c1[nH]c1ccc(Cl)cc21 | inconclusive [inhibitor, single point] |
| COc1cc(CNc2ccc(N3CCCC3)cc2)cc(Cl)c1OC | inconclusive [inhibitor, single point] |
| CCOC(=O)c1sc2nc(C)nc(SCC(=O)N(CC)C3CCS(=O)(=O)C3)c2c1C (configuration not stated) | inconclusive [inhibitor, partial curve] |

| SMILES | Potency |
| --- | --- |
| Cn1cccc1C(=O)N1CCC2(CCCN(c3cccc(-c4ccccc4)c3)C2)CC1 | inactive |
| Cc1nn(-c2ccccc2)c(Cl)c1/C=C1\C(=O)N(C)C(=S)N1C | inactive |
| CC1=C(C(=O)O)N2C(=O)[C@@H](NC(=O)[C@H](N)c3ccccc3)[C@H]2SC1 | inconclusive [inhibitor, full curve, poor fit] |
| CCCOc1ccc(NCC(=O)Nc2ccc(C)cc2C)cc1 | inconclusive [inhibitor, partial curve, poor fit] |
| N#Cc1c(C(F)(F)F)cc(-c2cccs2)nc1N1CCCCC1 | inconclusive [activator, partial curve] |
| O=C1N=c2ccc(Br)cc2=C1c1sc(=S)n(NS(=O)(=O)c2ccccc2)c1O | inconclusive [inhibitor, single point] |
| Cc1cccc(-n2c(C)cc(/C=C3\NC(=O)NC3=O)c2C)c1 | inconclusive [inhibitor, single point] |
| O=S(=O)(c1cccc2c(Cl)cccc12)N1CCCNCC1 | inconclusive [inhibitor, single point] |
| O=C1C2CC=CCC2C(=O)N1Cc1nnc(-c2ccc(Cl)cc2)o1 (configuration not stated) | inactive |
| O=[N+]([O-])c1ccc(Cl)cc1Sc1nc2ccccc2o1 | inconclusive [inhibitor, single point] |
| O=C(/C=C/c1ccc(OCc2cccc(Cl)c2)cc1)N1CCOCC1 | inconclusive [inhibitor, single point] |
| Cc1nn(-c2ccc(F)cc2)c(Cl)c1/C=C1\C(=O)Nc2ccccc21 | active: 28.2 µM |
| CCCCN1C(=O)C(=Nc2cccc3cnccc23)c2ccccc21 | inconclusive [inhibitor, single point] |
| O=C(N/N=C/c1cn(-c2cccs2)nc1-c1ccccc1)c1ccc(O)cc1 | inconclusive [inhibitor, single point] |
| Cc1[nH]n(-c2ccc(Br)cc2)c(=O)c1C=Nc1ccc(S(=O)(=O)Nc2nccs2)cc1 | inconclusive [inhibitor, single point] |
| Cn1nnnc1SCc1csc(C2C(C#N)=C(N)OC3=C2C(=O)CCC3)c1 (configuration not stated) | inconclusive [inhibitor, single point] |
| CC1CCCC(C)N1/N=C/C=C/c1ccccc1[N+](=O)[O-] (configuration not stated) | active: 20 µM |
| COC(=O)C1=C(C)N(c2cccc(OC)c2)C(=O)/C1=C\c1ccco1 | inconclusive [inhibitor, partial curve] |
| CCOc1ccccc1Nc1nnc(SC(C)C(=O)Nc2nc(-c3ccccc3)cs2)s1 (configuration not stated) | inactive |
| Cc1nn2c(Nc3ccccc3)c3c(nc2c1-c1ccccc1)CCC3 | inconclusive [activator, partial curve] |
| COc1cccc([C@@H]2Oc3ccc(Br)cc3C(=O)[C@H]2OC(=O)Nc2ccc(OC(F)F)cc2)c1 | inactive |
| CCCn1cc([C@@H]2C[C@H]3CN(Cc4cccc(Cl)c4)C(=O)[C@]34CCCN24)c(C)n1 | inconclusive [inhibitor, single point] |
| O=C(CSc1nc(-c2ccccc2)cs1)Nc1ccccc1[N+](=O)[O-] | inconclusive [inhibitor, single point] |

| SMILES | Potency |
| --- | --- |
| CCCn1c(C)nc2c(NC3CCCCC3)nc(C)nc21 | inactive |
| Cc1nn(-c2ccccc2)c(Cl)c1/C=N/Nc1nc2ccccc2n1C | inconclusive [inhibitor, partial curve, poor fit] |
| O=C(Cn1nnc(-c2cc(C(F)(F)F)cc(C(F)(F)F)c2)n1)NNC(=S)Nc1ccc(Cl)cc1 | inconclusive [inhibitor, single point] |
| CC(=O)OC1COC(OC2C(O)C(C)OC(OC3C(OC4CCC5(C)C(CCC6(C)C5CC=C5C7CC(C)(C)CCC7(C(=O)O)CCC56C)C4(C)CO)OCC(O)C3O)C2O)C(O)C1OC(C)=O (configuration not stated) | active: 20 µM |
| c1cncc(CNc2ncnc3ccc(-c4cccnc4)cc23)c1 | inactive |
| CC(C)(C)C(=O)Nc1nc2c(s1)CN(Cc1ccccc1)CC2 | inconclusive [inhibitor, single point] |
| CC1(OC(=O)C2CCCC2)C(=O)C=C2C=C(c3ccsc3)N(Cc3ccccc3)C=C2C1=O (configuration not stated) | inconclusive [inhibitor, partial curve, poor fit] |
| C=C1C(=O)OC2CC1C(OC(C)=O)CC(C)=CCCC(C)=CCC[C@@]2(C)O (some centres not stated) | inactive |
| Cc1cc(C)cc(Oc2coc3cc(OC(=O)c4cccs4)ccc3c2=O)c1 | inconclusive [inhibitor, single point] |
| CCCCC(CC)CNC(=O)CC1Nc2c3ccccc3nc(=S)n2C1=O (configuration not stated) | inactive |
| Cc1ccc(NC(=O)CSc2nc3ccccc3c(=O)n2CCCN2CCCCC2)cc1Cl | inconclusive [inhibitor, partial curve] |
| OCCN1CCN(C2Cc3cc(Cl)ccc3Sc3ccc(Cl)cc32)CC1 (configuration not stated) (tested in a mixture with another compound) | inconclusive [inhibitor, single point] |
| S=c1[nH]nc(-c2ccncc2)n1/N=C/c1cccc(Cl)c1 | inconclusive [inhibitor, partial curve] |
| Clc1cccc(-c2cc3nc4c(c(N5CCNCC5)n3n2)CCCC4)c1 | inconclusive [activator, partial curve] |
| COc1ccc(C(C)(C)C)cc1NC(=O)CNc1cccc2ccccc12 | inactive |
| O=C1NC(=S)/C(=C\c2ccc(-c3ccccc3Cl)o2)S1 | inconclusive [inhibitor, single point] |
| CC[C@@H]1Cc2cc(O)ccc2C2=C1c1ccc(O)cc1C[C@H]2CC | inconclusive [inhibitor, single point] |
| Cn1c(=O)cc(Nc2ccccc2)c2c(=O)n(-c3ccccc3)c(=O)n(-c3ccccc3)c21 | active: 5.01 µM |
| CO/N=C/c1ccc(N2CCCC2)c([N+](=O)[O-])c1 | inconclusive [inhibitor, single point] |
| COc1ccc(Oc2ncc3nc(-c4cccs4)c(=O)n(C)c3n2)cc1 | inconclusive [activator, single point] |
| Cc1ccc(C(=O)C2=C(O)C(=O)N(c3ncccn3)C2c2ccc(Cl)cc2)o1 (configuration not stated) | inactive |
